A number of entries come with more than one value. This is not the full list of results. An entry can have further records. The calls were made as follows: active = hit-call score of the fitted dose curve at least 0.9, where 1 is the maximum; inactive = score below 0.9. Values that stand side by side are repeated measurements in other runs, samples, wells, individuals or studies. More than one record can exist for a structure, and the calls need not agree.

Assay [1] addresses Aryl hydrocarbon receptor (Homo sapiens) (UniProt P35869). The assay is described as follows: ATG_Ahr_CIS: Attagene CIS-FACTORIAL HepG2 Assay for human Aryl Hydrocarbon Receptor (Ahr) (AID 2282930). As to conditions: HepG2 AhR cis-factorial reporter transcription; actives raise or lower the signal. Summed up:
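Following 24 h of chemical dosing, transfected HepG2 liver cells with cis-driven reporter units were lysed for RNA; reporter mRNA was quantified via RT-PCR and capillary electrophoresis, and responses fitted bidirectionally from DMSO.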

The nature of assay [2]: ATG_EGR_CIS: Attagene CIS-FACTORIAL HepG2 Assay for human Early Growth Response 1 (EGR1) (AID 2282938). Particulars: HepG2 Attagene CIS-FACTORIAL EGR reporter mRNA; actives raise or lower the signal. Summed up:
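Fluorescent capillary-electrophoresis signal of reporter cDNA fragments serves as read-out. HepG2 cells bear transiently transfected cis-promoter reporter units and are exposed 24 h; gain- or loss-of-signal is fitted against DMSO.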

Assay [3] is described as follows: ATG_MRE_CIS: Attagene CIS-FACTORIAL HepG2 Assay for human Metal Responsive Element (MRE) (AID 2282954). Particulars: HepG2 MRE cis-reporter transcription, Attagene multiplex; actives raise or lower the signal. Summed up:
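Step one: transfect HepG2 with cis-regulated reporter units. Step two: dose 24 h. Step three: isolate RNA, RT-PCR, 6-FAM label, HpaI digest, capillary electrophoresis. Fit bidirectionally to DMSO.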

Assay [4] is described as follows: ATG_PPRE_CIS: Attagene CIS-FACTORIAL HepG2 Assay for human Peroxisome Proliferator-activated Response Element (PPRE) (AID 2282958). As to conditions: HepG2 PPRE cis-element reporter, Attagene transcription factor profiling; actives raise or lower the signal. Summed up:
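After human HepG2 hepatoma cells were transiently transfected with cis-promoter reporter constructs, they were exposed to test chemicals for 24 hours. Reporter RNA was then reverse-transcribed, PCR-amplified, FAM-labeled, HpaI-digested and quantified by capillary electrophoresis.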

UniProt P35869, sequence (P35869 whole entry, looked up): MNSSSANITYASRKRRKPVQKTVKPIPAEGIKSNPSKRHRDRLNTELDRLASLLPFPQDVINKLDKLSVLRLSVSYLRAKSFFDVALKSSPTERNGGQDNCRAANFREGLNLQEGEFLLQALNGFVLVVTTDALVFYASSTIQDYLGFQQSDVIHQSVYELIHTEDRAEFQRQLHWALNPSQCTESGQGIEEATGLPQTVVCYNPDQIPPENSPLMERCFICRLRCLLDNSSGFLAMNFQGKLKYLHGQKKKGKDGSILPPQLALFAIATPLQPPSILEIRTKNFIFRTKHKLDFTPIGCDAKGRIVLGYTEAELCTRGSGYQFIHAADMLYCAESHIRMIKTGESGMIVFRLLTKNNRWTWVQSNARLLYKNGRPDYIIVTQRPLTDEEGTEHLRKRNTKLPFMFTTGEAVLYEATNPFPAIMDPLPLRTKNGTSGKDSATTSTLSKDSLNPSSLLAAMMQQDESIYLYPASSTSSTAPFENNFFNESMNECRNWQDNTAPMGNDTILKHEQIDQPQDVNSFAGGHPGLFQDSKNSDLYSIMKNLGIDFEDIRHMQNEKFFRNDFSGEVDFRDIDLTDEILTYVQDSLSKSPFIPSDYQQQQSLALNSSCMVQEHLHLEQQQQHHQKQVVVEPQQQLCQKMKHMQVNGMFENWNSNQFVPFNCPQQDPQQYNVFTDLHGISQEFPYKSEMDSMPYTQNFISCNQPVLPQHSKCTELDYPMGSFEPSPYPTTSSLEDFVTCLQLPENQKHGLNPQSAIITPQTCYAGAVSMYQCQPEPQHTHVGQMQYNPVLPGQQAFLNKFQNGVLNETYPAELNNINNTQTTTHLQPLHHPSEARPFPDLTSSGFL

As for `OCc1c[nH]c2ccccc12`, the AC50 (usually the midpoint of the concentration-response curve, whichever way the signal moves) is “active: 486, 385, 281, 196, 52.8 nM [separate samples]” in assay [1]; “active: 8.35, 8.05, 32.8, 7.33 µM [separate samples]” in assay [2]; “active: 8.28, 9.3, 36.6, 26.8, 8.36 µM [separate samples]” in assay [3]; “active: 20.4, 19.8, 22.7, 100, 45 µM [separate samples]” in assay [4].

Values taken from PubChem BioAssay (EPA / NIEHS).
